# Data reported in PubChem BioAssay AID504332 (National Center for Advancing Translational Sciences (NCATS), 2011).
# Where “and” joins values, the source holds several entries; their conditions need not be identical. Identical values can stand only once. In all, about 350,000 compounds went through this assay and about 31,000 (8.9%) were called active. The shares of active, inactive and inconclusive entries below differ from those in the screen. Calls come from the whole dose curve; as a rule, active = well fitted inhibition curve with a large enough effect; inconclusive = small, poorly fitted or top-dose-only effect; inactive = no such curve, though single readings can be large or run the other way. Potencies beside an inconclusive call are fits to weak or partial responses and may not hold up.
# Biological target: Histone-lysine N-methyltransferase EHMT2 (Homo sapiens) (UniProt Q96KQ7)
# Chain of UniProt Q96KQ7 (Q96KQ7 whole entry, looked up): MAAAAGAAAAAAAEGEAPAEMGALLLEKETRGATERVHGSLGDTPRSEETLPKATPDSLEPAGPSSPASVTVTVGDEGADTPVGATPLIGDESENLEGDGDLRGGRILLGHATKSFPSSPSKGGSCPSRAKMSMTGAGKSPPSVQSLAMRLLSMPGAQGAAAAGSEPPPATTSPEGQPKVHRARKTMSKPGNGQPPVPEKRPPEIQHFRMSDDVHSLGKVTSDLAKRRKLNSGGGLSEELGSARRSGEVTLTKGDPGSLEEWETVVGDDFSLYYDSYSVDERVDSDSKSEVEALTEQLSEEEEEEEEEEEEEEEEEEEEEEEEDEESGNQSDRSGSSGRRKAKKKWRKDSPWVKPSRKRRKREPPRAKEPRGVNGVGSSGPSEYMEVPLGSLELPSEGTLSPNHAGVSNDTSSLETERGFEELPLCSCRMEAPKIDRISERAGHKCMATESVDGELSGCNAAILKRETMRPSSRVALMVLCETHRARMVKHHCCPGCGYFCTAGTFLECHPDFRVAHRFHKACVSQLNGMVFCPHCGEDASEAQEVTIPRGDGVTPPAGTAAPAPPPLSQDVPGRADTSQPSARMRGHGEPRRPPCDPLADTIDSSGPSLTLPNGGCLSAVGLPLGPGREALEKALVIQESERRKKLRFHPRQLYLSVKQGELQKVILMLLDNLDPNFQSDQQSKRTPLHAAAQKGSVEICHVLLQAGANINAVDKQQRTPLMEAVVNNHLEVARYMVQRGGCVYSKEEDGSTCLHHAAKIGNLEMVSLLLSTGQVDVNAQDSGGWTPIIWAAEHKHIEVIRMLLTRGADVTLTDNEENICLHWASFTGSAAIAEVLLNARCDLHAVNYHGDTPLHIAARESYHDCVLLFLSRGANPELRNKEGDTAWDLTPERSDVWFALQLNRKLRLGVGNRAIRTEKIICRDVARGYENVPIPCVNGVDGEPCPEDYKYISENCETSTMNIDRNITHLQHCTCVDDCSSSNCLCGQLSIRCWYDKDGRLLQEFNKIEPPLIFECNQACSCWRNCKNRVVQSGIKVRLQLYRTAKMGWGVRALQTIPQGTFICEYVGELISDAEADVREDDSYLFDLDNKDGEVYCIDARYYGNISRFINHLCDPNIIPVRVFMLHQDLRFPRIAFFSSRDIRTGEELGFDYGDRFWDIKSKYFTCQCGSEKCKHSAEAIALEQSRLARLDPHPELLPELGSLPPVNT
# Test: qHTS Assay for Inhibitors of Histone Lysine Methyltransferase G9a; note: nearly all actives have a fitted effect of over 75% in size
# Settings: G9a H3K9 monomethylation, AlphaScreen, 2 h; activity, negative = inhibition: at 59 µM (top of the series) unless noted
# In short: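 Methyltransferase reactions run at room temperature for 2 h (20 nM enzyme, 500 nM biotin-H3K9 peptide, 20 uM SAM) after a 15 min compound preincubation; product detected by AlphaScreen beads and anti-H3K9me1 antibody.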
# % is set by controls: 0 for no effect and ±100 for the full control effect; potency is the fitted concentration of half-maximal effect; tags give direction and shape of the fitted curve.
Compound,Potency,"activity, negative = inhibition"
CCCNC(=O)c1ccc(Cl)cc1Cl,active: 50.1 µM,–
COc1cc(O)c2c(=O)c3c(OC)c(O)ccc3oc2c1,"inconclusive: 79.4 µM [inhibitor, single point]",–
Cc1cc(C)c(S(=O)(=O)Nc2ccc(N3CCOCC3)cc2)c(C)c1,–,inconclusive: -81.2% [inhibitor]
CCOc1ccc(CCn2c(-c3ccco3)nc3ccccc3c2=O)cc1OCC,"inconclusive: 39.8 µM [inhibitor, single point]",–
COc1ccc(/C=N/n2c(=O)[nH]c3c([nH]c4ccc(F)cc43)c2=O)cc1CN1CCCCC1,"inconclusive: 79.4 µM [inhibitor, partial curve, poor fit]",–
Cc1ccc(-c2n[nH]c(=S)n2C)cc1Cl,"inconclusive: 35.5 µM [inhibitor, single point]",–
CC(=O)c1ccc(OCCCC(=O)N2CCN(S(=O)(=O)c3ccc(C(C)C)cc3)CC2)cc1,"inconclusive: 56.2 µM [inhibitor, partial curve, poor fit]",–
CC(=O)Nc1ccc(N=NN2CCOCC2)cc1,active: 8.91 µM,–
CCN1CCN(C(c2ccc(SC)cc2)c2c(O)cc(C)n(Cc3ccco3)c2=O)CC1 (centres undefined),"inconclusive: 39.8 µM [inhibitor, single point]",–
O=C(NC(=S)NC1CCCCC1)c1ccc(F)cc1,–,inactive: 21.1% [at 12.7 µM]
Cc1cc(C)c(NC(=O)CCn2c(=O)c3cccn3c3ccccc32)c(C)c1,inactive,–
COc1ccc(NC(=O)C(OC)c2ccccc2)cc1Cl (centres undefined),inactive,–
COc1ccccc1-c1nnc2sc(-c3ccc(N(C)C)cc3)nn12,inactive,–
Cc1c(C(=O)NCCN(C)C)oc2ccc(S(=O)(=O)N3CCCC3)cc12,"inconclusive: 56.2 µM [inhibitor, partial curve]",–
CCSc1nc2ccccc2n1CC(=O)N1CCOCC1,"inconclusive: 79.4 µM [inhibitor, single point]",–
CC(Oc1ccc(F)cc1)c1nnc(SCC(=O)N(c2ccccc2)C2CCS(=O)(=O)C2)o1 (centres undefined),"inconclusive: 56.2 µM [inhibitor, partial curve, poor fit]",–
CCOc1ccc(C(=O)Oc2cc(C)[nH]c(=O)c2[N+](=O)[O-])cc1,"inconclusive: 89.1 µM [inhibitor, single point]",–
O=C(Nc1cc(Cl)ccc1-n1cncn1)c1cccs1,active: 44.7 µM,–
COc1ccc(NC(=S)NC(NC(=O)c2cccc(C)c2)C(Cl)(Cl)Cl)c([N+](=O)[O-])c1 (centres undefined),"inconclusive: 22.4 µM [inhibitor, single point]",–
CCOC(=O)N1CCC(NS(=O)(=O)c2cc(Br)cc3c2N(C(=O)CC)CC3)CC1,"inconclusive: 3.55 µM [inhibitor, single point]",–
CCSc1nnc(NC(=O)CSc2nccn2-c2cccc(C)c2C)s1,"inconclusive: 35.5 µM [inhibitor, partial curve]",–
O=C(CN1CCN(C(=O)c2ccco2)CC1)N1CCc2[nH]c3ccccc3c2C1,active: 22.4 µM,–
CCOC(=O)c1[nH]cnc1C(=O)Nc1ccc(C)cc1,"inconclusive: 39.8 µM [inhibitor, single point]",–

Compound,Potency,"activity, negative = inhibition"
COC(=O)c1sc(N2C(=O)c3oc4ccccc4c(=O)c3C2c2ccc(O)cc2)nc1C (centres undefined),inactive,–
CC(=O)c1c(N2CCN(Cc3ccccc3)CC2)nc(=S)n(-c2ccccc2)c1C,"inconclusive: 39.8 µM [inhibitor, partial curve, poor fit]",–
O=C(CSc1ccc(-c2ccc(Br)cc2)nn1)NCC1CCCO1 (centres undefined),"inconclusive: 89.1 µM [inhibitor, single point]",–
CCC/C=C(\CCC)C(NC(=O)OCC(C)C)c1ccc(C(=O)OC)cc1 (centres undefined),"inconclusive: 89.1 µM [inhibitor, single point]",–
COc1cc(NC(=O)CCS(=O)(=O)c2nc(-c3ccc4c(c3)OCO4)cc(C(F)(F)F)n2)cc(OC)c1OC,"inconclusive: 14.1 µM [inhibitor, partial curve, poor fit]",–
COc1ccc(CCNC(=O)c2oc(=O)c3ccccc3c2-c2ccccc2)cc1OC,inactive,–
COc1ccc(CNC(=O)CN2C(=O)COc3ccc(S(=O)(=O)N4CCC(C)CC4)cc32)cc1,inactive,–
Cc1ccc[n+](/C(C(=S)NCc2ccco2)=C(/[O-])c2ccccc2Cl)c1,"inconclusive: 35.5 µM [inhibitor, single point]",–
O=C(CSc1nnc(NC(=O)c2c(F)cccc2Cl)s1)Nc1ccccc1F,inactive,–
O=C(CN(C1CCCCC1)S(=O)(=O)c1ccc(F)cc1)Nc1ccc2c(c1)OCO2,"inconclusive: 28.2 µM [inhibitor, single point]",–
CCOC(=O)c1cnc(SCC(=O)c2ccc(C)cc2)nc1N,"inconclusive: 35.5 µM [inhibitor, single point]",–
Cc1nc(NC(=O)c2c(-c3ccccc3)c(-c3ccccc3)nn(C)c2=O)sc1C,"inconclusive: 8.91 µM [inhibitor, partial curve, poor fit]",–
Cn1c(Cn2c3ccccc3c3ccccc32)n[nH]c1=S,active: 7.94 µM,–
CCN(CCCNC(=O)C1CCCN(S(=O)(=O)c2cnc[nH]2)C1)c1ccccc1 (centres undefined),"inconclusive: 31.6 µM [inhibitor, single point]",–
Cc1cc(NC(=O)CSc2cn(CCNC(=O)c3ccccc3)c3ccccc23)no1,"inconclusive: 89.1 µM [inhibitor, single point]",–
Cc1ccc(C(C[N+](=O)[O-])c2c(-c3ccccc3O)[nH][nH]c2=O)cc1 (centres undefined),inactive,–
CC(Nc1ccc2c(c1)OCCO2)C(=O)N1c2ccccc2CC1C (centres undefined),"inconclusive: 39.8 µM [inhibitor, single point]",–
COCCCNC(=O)CSc1nc2cc3c(cc2c(=O)n1CCCCCC(=O)NCc1ccc2c(c1)OCO2)OCO3,inactive,–
Cc1ccc(NC(=O)C(C)SCc2ccccc2)cc1 (centres undefined),inactive,–
N#Cc1cc(C(=O)c2ccccc2O)cn(-c2ccc(Cl)cc2)c1=O,"inconclusive: 79.4 µM [inhibitor, partial curve, poor fit]",–
COc1ccc(C2=NNC(c3cccs3)=Nc3ccc(OC)cc32)cc1,"inconclusive: 35.5 µM [inhibitor, single point]",–
Cn1c(=O)c(-c2ccc(Cl)cc2)nc2cnc(N3CCOCC3)nc21,–,inactive: 7.25% [at 0.501 µM]
COC(=O)c1ccc(N2CCN(C(=O)C3CC3)CC2)c([N+](=O)[O-])c1,–,inactive: -3.97% [at 12.7 µM]

Compound,Potency,"activity, negative = inhibition"
COc1ccccc1-c1nnc(SCC(=O)O)n1C,"inconclusive: 89.1 µM [inhibitor, partial curve, poor fit]",–
Cc1cccc(NC(=O)c2sc3nc4c(cc3c2N)CN(C(C)C)CC4)c1,active: 14.1 µM,–
CCCCCCn1c(SCCC)nc2c1c(=O)[nH]c(=O)n2C,"inconclusive: 1.12 µM [inhibitor, full curve, poor fit]",–
N#Cc1sc(C(N)=O)c(-c2ccccc2)c1-c1ccccc1,"inconclusive: 35.5 µM [inhibitor, full curve]",–
O=C1/C(=C\c2ccco2)SC(=S)N1c1ccccc1,active: 50.1 µM,–
Cc1ccc(S(=O)(=O)N(C)C)cc1-n1c(SCC(=O)Nc2ccc(F)c(F)c2F)nc2ccccc2c1=O,"inconclusive: 31.6 µM [inhibitor, single point]",–
CCOC1(OCC)N=C(N)C2(C#N)C(c3cccc(C)c3)C12C#N (centres undefined),active: 39.8 µM,–
CSc1ccccc1C(=O)NCc1ccccc1C,"inconclusive: 0.316 µM [inhibitor, partial curve, poor fit]",–
COc1ccc(C(=O)/C(=C\c2sccc2C)c2nc3ccccc3o2)cc1,"inconclusive: 89.1 µM [inhibitor, single point]",–
COc1ccc(Cl)cc1CN1C(=O)NC2(CCCCCC2)C1=O,"inconclusive: 79.4 µM [inhibitor, single point]",–
O=C(O)c1ccc(-c2ccccc2Cl)o1,"inconclusive: 31.6 µM [inhibitor, partial curve, poor fit] and inconclusive: 89.1 µM [inhibitor, single point]",–
CCOc1cc(CNc2ccc(N3CCCC3)cc2)cc(Cl)c1OC,active: 10 µM,–
CCc1cc(=S)n2c([nH]c3ccccc32)c1C#N,active: 3.98 µM,–
CCOc1ccc(NS(=O)(=O)c2ccc3c(c2)N(C(C)=O)CCS3)cc1,inactive,–
O=c1ccnc(Sc2ncccc2[N+](=O)[O-])[nH]1,"inconclusive: 35.5 µM [inhibitor, single point]",–
Cc1ccc2nc(Cc3ccc(N)cc3)oc2c1,inactive,–
COc1ccc(OC)c(C2C3CN(C(C)C)CC=C3C(C#N)=C(N)C2(C#N)C#N)c1 (centres undefined),–,inconclusive: -95.5% [inhibitor]
Cn1cc(C(=O)NCc2ccc(Cl)cc2)c(=O)c2cc(S(=O)(=O)N3CCOCC3)ccc21,inactive,–
O=C(O)c1ccc(C(=O)c2ccc3c(c2)C(=O)N(Cc2ccco2)C3=O)cc1,–,inactive: -6.42% [at 12.7 µM]
Cc1ccc(C)c(-n2cc(CNC(C)Cn3cncn3)c(-c3ccccc3)n2)c1 (centres undefined),"inconclusive: 39.8 µM [inhibitor, single point]",–
N#Cc1ccc(CC(C(=O)O)N2Cc3ccccc3C2=O)cc1 (centres undefined),inactive,–
COc1ccc(C(CC(=O)NCc2ccccc2)Sc2n[nH]c(-c3ccccc3)n2)cc1 (centres undefined),inactive,–
CCCCc1cc2c(cc1NC(=O)CN1CCCCC1)OCCO2,"inconclusive: 79.4 µM [inhibitor, single point]",–
